Experimental data taken from PubChem BioAssay AID1347070 (National Center for Advancing Translational Sciences (NCATS), 2019).
In all, about 94,000 compounds went through this assay and about 20 (0.02%) were called active. Inconclusive means that the source gave no clear call. Such entries were picked first, then a sample of the others. Calls follow the shape of the dose curve; as a rule, active = well fitted activation curve with a large enough effect; inconclusive = small, poorly fitted or top-dose-only effect; inactive = flat fitted curve, though single readings scatter. Potencies of inconclusive entries are left out as doubtful fits.

Test: qHTS of alpha-syn Inhibitors: NCGC Sytravon Library Screen; as to growth rescue (activation): 0% is about no effect
Details: S. cerevisiae alpha-synuclein toxicity rescue, BacTiter-Glo growth, 24 h; growth rescue (activation): at 46.1 µM (top of the series)
Procedure, shortened: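 Growth restoration measured by BacTiter-Glo luminescence after 24 hr at 30 deg C; alpha-synuclein yeast, raffinose-pregrown to mid-log, were added at OD600=0.02 in galactose medium onto pinned compounds.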
Potency is read from the fitted curve at half-maximal effect; tags tell the direction and shape of the fitted curve.

SMILES | Potency | growth rescue (activation)
Cc1ccc(NC(=O)CN(c2ccccc2)S(=O)(=O)N(C)C)cc1Cl | inconclusive [activator, single point] | 
COc1ccccc1NC(=O)Cn1c(=O)n(Cc2ccc3c(c2)OCO3)c(=O)c2oc3ccccc3c21 |  | inactive: -15.5%
COc1ccc(OC)c(S(=O)(=O)Nc2cc3c(cc2C)n(C)c(=O)c(=O)n3C)c1 | inconclusive [activator, single point] | 
CCCCOc1ccc(CNC(=O)CN2CCSc3ccccc32)cc1 | inconclusive [activator, single point] | 
CCn1cc(C(=O)N2CCN(c3cccc(C)c3C)CC2)c(=O)c2ccc(C)nc21 |  | inconclusive: 31% [activator]
Cc1ccccc1Cn1c(SCc2ccc(C(=O)NC(C)c3ccccc3)cc2)nc2ccncc21 (stereo unspecified) |  | inactive: -1.53%
Cc1ccc(S(=O)(=O)NCCc2csc(-c3ccc(Cl)cc3)n2)cc1 | inconclusive [activator, single point] | 
CCN(Cc1ccccc1)C(=O)CCc1c(C)nc2c(c(C)nn2-c2ccc(C)c(C)c2)c1C | inconclusive [activator, partial curve] | 
O=C(NCCCO)C(=O)NCC(c1ccc2c(c1)OCO2)N1CCOCC1 (stereo unspecified) |  | inactive: -11.5%
Cc1cccc(N2CCN(C(=O)C3CCN(S(=O)(=O)c4cn(C)cn4)CC3)CC2)c1C |  | inactive: 0.779%
O=C(Nc1ccc2oc(-c3cccnc3)nc2c1)c1ccc(-c2ccccc2)o1 | inconclusive [activator, single point] | 
Cc1ccc(C)c(N2CCN(C(=O)c3ccc4c(c3)c(C)c(C)n4C)CC2)c1 | inconclusive [activator, single point] | 
COc1ccc(C(=O)/C=C/C(=O)N(CC(=O)NC2CCCCC2)Cc2ccccc2OC)c(O)c1 |  | inconclusive: 41.7% [activator]
CCOc1ccc(-c2ccc(NS(=O)(=O)c3cc(C)c(C)cc3C)cc2)nn1 | inconclusive [activator, single point] | 
COc1ccc(Nc2nc(N)c([N+](=O)[O-])c(NC3CCCCC3)n2)cc1 |  | inconclusive: 37.8% [activator]
CC(C)(C)OC(=O)N1CCC(c2c(C(=O)Nc3ccc4c(c3)OCCO4)cnn2-c2ccc(F)cc2)CC1 | inconclusive [activator, single point] | 
CCCOCc1cc(CN2CCN(c3cccc(Cl)c3)CC2)c(O)c2ncccc12 | inconclusive [activator, single point] | 
O=C(Cc1ccccc1F)N1CCC(c2nc3c(nnn3Cc3ccc(F)cc3)c(=O)[nH]2)CC1 |  | inactive: 1.23%
Cc1cc(C)cc(OCC(=O)N(Cc2ccc(Cl)cc2)CC2CCCO2)c1 (stereo unspecified) | inconclusive [activator, single point] | 
Cc1cc(=O)oc2c3c(cc(OCC(=O)NCCC(=O)N[C@@H](C)C(=O)O)c12)OC(C)(C)CC3 |  | inactive: 3.65%
O=C(CSc1nccn1Cc1ccc(F)cc1)Nc1ccc2c(c1)OCO2 |  | inactive: 0.36%
CCNS(=O)(=O)c1ccc(-c2ccc(-n3cnnn3)cc2)cc1 |  | inactive: 1.92%

SMILES | Potency | growth rescue (activation)
CCc1ccc(-c2nc(CS(=O)CC(=O)NCCc3ccc(Cl)cc3)c(C)o2)cc1 (stereo unspecified) | inconclusive [activator, single point] | 
CCN1CCSc2ccc(C(=O)NCc3ccc(OC)cc3)cc21 | inconclusive [activator, single point] | 
Cc1cn([C@H]2C[C@H](O)[C@@H](CNC(=O)[C@H](N)Cc3cccnc3)O2)c(=O)[nH]c1=O |  | inactive: 3.32%
Cc1cccc(N2CCN(S(=O)(=O)c3cc(C(=O)Nc4ccccc4Cl)ccc3F)CC2)c1C |  | inactive: 0.934%
O=C(CCNC(=O)c1ccc([N+](=O)[O-])cc1)NC1CCCCC1 |  | inactive: 1.09%
Cc1ccc2c(Sc3ccc(Cl)cc3)c(C(=O)N3CCC(C)CC3)[nH]c2c1 | inconclusive [activator, single point] | 
Cc1ccc(N2C(=O)CSC23C(=O)N(CC(=O)NCc2ccccc2)c2ccccc23)cc1C (stereo unspecified) |  | inactive: 0.151%
COc1ccc(OC)c2sc(N3CCN(C(=O)C(C)(C)C)CC3)nc12 | inconclusive [activator, single point] | 
Cc1ccccc1N1CC(c2nc3ccccc3n2CCC2CCCCC2)CC1=O (stereo unspecified) | inconclusive [activator, single point] | 
Cc1cc(C)c2c(CC(=O)N3CCN(c4cccc(Cl)c4)CC3)coc2c1 | inconclusive [activator, single point] | 
Cc1ccc(CNC(=O)c2ccc(CSCc3ccccc3C)o2)cc1 | inconclusive [activator, single point] | 
Cc1ccccc1Nc1cc(C(=O)NCc2cccs2)c2ccccc2n1 |  | inactive: -10.2%
CCCCN(CCCC)C1=C(C(=O)c2ccccc2)N(C)S(=O)(=O)c2ccccc21 | inconclusive [activator, partial curve] | 
COc1ccc2nc(N(Cc3cccnc3)C(=O)C3CCCCC3)sc2c1 | inconclusive [activator, full curve, poor fit] | 
COc1ccc(NC(=O)c2c(NC(=O)c3ccc(Br)cc3)sc3c2CCCC3)cc1 | inconclusive [activator, single point] | 
Cc1ccccc1Cc1c(C)nc2nc(SCC(=O)NCCc3ccc(Cl)cc3)nn2c1C | inconclusive [activator, single point] | 
O=C(Nc1c(C(=O)O)oc2ccccc12)c1ccc(C(F)(F)F)cc1 |  | inactive: -10.3%
CC(=O)c1ccc(NC(=O)Cn2cc(S(=O)(=O)Cc3ccccc3Cl)c3ccccc32)cc1 |  | inactive: -13.5%
CCC(C(=O)Nc1cc(F)ccc1F)n1nc(-c2cc(C)ccc2C)ccc1=O (stereo unspecified) | inconclusive [activator, single point] | 
CCN(CC)S(=O)(=O)c1ccc(N/N=C(\C)c2ccc(OC)cc2O)nc1 |  | inconclusive: 38.8% [activator]
Cc1ccc(C)c(Cn2c(SCC(=O)NCc3ccccc3)nc3ccccc32)c1 | inconclusive [activator, single point] | 
Cc1ccc(C)c(-c2nnc(NC(=O)c3ccco3)o2)c1 |  | inconclusive: 110% [activator]

SMILES | Potency | growth rescue (activation)
Cc1ccc2onc(CNC(=O)N3CCN(c4cc(Cl)ccc4C)CC3)c2c1 | inconclusive [activator, single point] | 
Cc1ccc(NS(=O)(=O)c2c(C)nc3sc(C)c(C)n3c2=O)cc1F | inconclusive [activator, single point] | 
CCn1c(CN2CCCCC2)nc2cc(NC(=O)COc3ccc(C(C)(C)C)cc3)ccc21 |  | inactive: -12.8%
Cc1oc(-c2cccc(Br)c2)nc1Cn1c(SCc2cccc(F)c2)nc2cccnc21 | inconclusive [activator, single point] | 
CCc1ccc(NS(=O)(=O)c2ccc3[nH]c4c(c3c2)CCCCCC4)cc1 | inconclusive [activator, single point] | 
N#Cc1ccccc1OCC(=O)Nc1nc(-c2ccccn2)cs1 |  | inconclusive: 785% [activator]
COC(=O)c1ccc(OCC2c3cc(OC)c(OC)cc3CCN2C(=O)c2cccc(C)c2)cc1 (stereo unspecified) |  | inactive: 6.3%
Cc1cc(C)cc(NS(=O)(=O)c2ccc(-c3cc(C)no3)cc2)c1 | inconclusive [activator, single point] | 
Cc1ccc(CN(Cc2ccco2)C(=O)COc2cc(C)c(Cl)c(C)c2)cc1 | inconclusive [activator, single point] | 
CCc1ccc(S(=O)(=O)NCCc2csc3nc(-c4ccccc4)nn23)s1 |  | inactive: 26.2%
O=C(NCCc1csc2nc(-c3ccc(F)cc3)nn12)c1cccc(C(F)(F)F)c1 |  | inconclusive: 30.2% [activator]
Cc1ccc2c(C)c(C(=O)N(Cc3ccc(Cl)cc3)C3CCS(=O)(=O)C3)oc2c1 (stereo unspecified) | inconclusive [activator, single point] | 
CCOC(=O)CC(NS(=O)(=O)c1ccc2[nH]c3c(c2c1)CCCC3)c1ccccc1Cl (stereo unspecified) | inconclusive [activator, single point] | 
O=C(NCc1ccc(Cl)cc1)c1cnc(N2CCCCC2)c2ccccc12 | inconclusive [activator, single point] | 
Cc1cccc(C)c1OCCn1c(C2CC(=O)N(c3cccc(Cl)c3)C2)nc2ccccc21 (stereo unspecified) | inconclusive [activator, single point] | 
O=C(CSc1ccccc1)N1CCc2c([nH]c3ccccc23)C1c1ccc(F)cc1 (stereo unspecified) | inconclusive [activator, single point] | 
CCOC(=O)c1cc(-c2ccccc2)n(CCCC(=O)Nc2ccc(C)cc2C)c1C | inconclusive [activator, single point] | 
CC1=C(C(=O)Nc2ccccc2C)C(c2ccccn2)n2nc(SCc3ccccc3F)nc2N1 (stereo unspecified) |  | inactive: -12.9%
COc1ccccc1NC(=O)CCn1c(=O)oc2cc(Cl)ccc21 | inconclusive [activator, single point] | 
CCOC(=O)C(Cc1c[nH]c2ccccc12)NC(=O)COc1ccc(Cl)cc1 (stereo unspecified) | inconclusive [activator, single point] | 
CC(C)c1ccc(Nc2c(-c3ccccc3O)nc3cnccn23)cc1 | active: 22.4 µM | 
Cc1ccc(-n2c(SCC(=O)Nc3cccc(Cl)c3)nc3n[nH]c(C)c3c2=N)cc1 | inconclusive [activator, single point] | 
